The values that follow are results of earlier work, collected in paper PMC11323271 (Journal of Chemical Information and Modeling, 2024).

≈ marks a conversion by molar mass, not a printed value.

What all share (details): cited from earlier work
One series relates to M. tuberculosis H37Rv.
The test system of series [1] is M. tuberculosis.
In series [2] the test system is M. tuberculosis. This is another data set of the same source.

Turning to `CCN(CC)CC(O)Cn1c2ccccc2c2ccccc21` (stereo not drawn) [AE-641/05526042], the “IC50, growth inhibitory activity in words” value in the series on M. tuberculosis H37Rv is on record as “Inactive”.
Turning to `OC(CN1CCOCC1)Cn1c2ccccc2c2ccccc21` (stereo not drawn) [AE-641/05526043], the “IC50, growth inhibitory activity in words” value in the series with M. tuberculosis H37Rv is listed as “Inactive”.
On to `CCCN(CCC)CC(O)Cn1c2ccccc2c2ccccc21` (stereo not drawn) [AG-205/06683048], for which, in the series on M. tuberculosis H37Rv, the “IC50, growth inhibitory activity in words” value was “Inactive”.
On to `OC(CN1CCCCC1)Cn1c2ccccc2c2ccccc21` (stereo not drawn) [AG-205/06683053], for which, in the series with M. tuberculosis [1], the “IC50, growth inhibitory activity in words” value is “Inactive”.
As for `Cc1ccc2c(c1)c(-c1ccccc1)c(-c1ccccc1)n2CC(O)CN1CCN(CCO)CC1` (stereo not drawn) [AP-124/41376194], in the series with M. tuberculosis H37Rv, the “IC50, M. tuberculosis growth inhibitory activity” value was 1.84 µg/mL (≈ 3.92 µM).
As to `CO[C@H]1[C@H](OC(=O)c2ccc(C)[nH]2)[C@H](O)[C@@H](Oc2ccc3c(O)c(NC(=O)c4c[nH]c(C(=O)Nc5c(O)c6ccc(O[C@H]7OC(C)(C)[C@@H](OC)[C@H](OC(=O)c8ccc(C)[nH]8)[C@@H]7O)c(C)c6oc5=O)c4C)c(=O)oc3c2C)OC1(C)C` [coumermycin A1], in the series on M. tuberculosis [2], the “MIC, M. tuberculosis growth inhibition” value was 2.5 µg/mL (≈ 2.25 µM).
